Measurements: PubChem BioAssay AID652104 (National Center for Advancing Translational Sciences (NCATS), 2013)
Hit rate of the full screen: of about 410,000 compounds, about 7,200 (1.8%) were called active. Inconclusive means that the source gave no clear call. Such entries were picked first, then a sample of the others. Calls come from the whole dose curve; as a rule, active = well fitted activation curve with a large enough effect; inconclusive = small, poorly fitted or top-dose-only effect, or another doubt; inactive = no such curve, though single readings can be large or run the other way. No potency is given beside an inconclusive call; the fits are too rough.

test: qHTS of TDP-43 Inhibitors; conditions: TDP-43 expressing yeast growth rescue, BacTiter-Glo, 24 h; growth rescue (activation): at 46.1 µM (top of the series) unless noted; note: nearly all actives have a fitted effect of over 50% in size; for growth rescue (activation): % of control where 0% means no effect
Outline: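 Growth rescue of TDP-43-toxic yeast measured as ATP luminescence (BacTiter-Glo). Cells grown to mid-log in raffinose, induced in galactose at OD600=0.02, exposed to compound 24 hr at 30 deg C.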
Potency is the fitted concentration of half-maximal effect; tags give direction and shape of the fitted curve.

SMILES | Potency | growth rescue (activation)
CCC(C)[C@H]1CNC(=S)N1CCc1cccc2ccccc12 (stereo not given in full) | inconclusive [activator, partial curve, poor fit] | –
COc1ccc(-c2cc(C3CCN(c4cc(Cl)nc(N)n4)CC3)[nH]n2)cc1 | inconclusive [activator, single point] | –
FC(F)(F)c1cccc(-c2nnc(-c3ccccc3)c(N3CCOCC3)n2)c1 | inconclusive [activator, single point] | –
COc1ccc2c3c(cccc13)C(=O)CC2 | inconclusive [activator, partial curve] | –
COc1ccc(C(=O)N2c3ccccc3C=CC2C#N)cc1 (stereo not given) | inactive | –
COC(=O)C1=CN(CCCN2CCCC2=O)C=C(C(=O)OC)C1c1cccs1 | inconclusive [activator, full curve, poor fit] | –
CCOc1cc(N2CCOCC2)c(OCC)cc1NC(=O)c1ccc(S(=O)(=O)N2CC(C)OC(C)C2)cc1 (stereo not given) | inactive | –
Cc1cc(C)cc(C(=O)NC(=S)Nc2cccnc2)c1 | inconclusive [activator, single point] | –
CC1CCN(S(=O)(=O)c2cc(C(=O)N3CCN(c4ncccn4)CC3)ccc2Br)CC1 | inconclusive [activator, partial curve] | –
CCCOc1ccc(/C=C2/C(=O)ON=C2C)cc1Cl | – | inconclusive: -78.1% [activator]
CCN(C(=O)COC(=O)c1ccco1)c1cccc2ccccc12 | inconclusive [activator, single point] | –
COc1ccccc1C(C)Nc1nc(-c2cccnc2)nc2ccccc12 (stereo not given) | inconclusive [activator, single point] | –
CCOC(=O)Nc1sc2c(c1C#N)CCC(C)C2 (stereo not given) | inconclusive [activator, partial curve] | –
c1cn2c(NC3CCCCC3)c(-c3ccc(SC4CCCCC4)cc3)nc2cn1 | inconclusive [activator, partial curve, poor fit] | –
Clc1cccc(CNc2ccn3nc(-c4cccc(Cl)c4)cc3n2)c1 | active: 11.2 µM | –
COc1ccc(S(=O)(=O)Nc2cccc(-c3ccc(N4CCCCC4)nn3)c2)cc1F | inactive | –
COc1ccc(/C=N/Nc2nncc3ccccc23)c(OC)c1 | inconclusive [activator, partial curve] | –
CN1C(=O)c2ccccc2Sc2ccc(NC(=O)N3CCN(c4ccc(F)cc4)CC3)cc21 | inactive | –
COc1ccc(-c2nc(S(=O)(=O)c3ccccc3)c(N3CCC(C)CC3)o2)cc1 | inconclusive [activator, partial curve] | –
COc1cccc(NC(=O)N2CCN(c3cccc(C)c3C)CC2)c1 | active: 12.6 µM | –
Cc1cc(CN(C)C(=O)c2ccc3nc(Cc4ccccc4F)oc3c2)n[nH]1 | inactive | –
COc1ccccc1N=Cc1nc(-c2ccccc2)oc1OC(C)=O | inconclusive [activator, single point] | –
COc1ccccc1NC(=O)c1c(C)cc(C)nc1SCC(=O)Nc1ccc(C)cc1 | active: 17.8 µM | –
CCOC(=O)c1ccc(-c2ccc3c(=O)c4ccccc4n(C)c3c2)cc1F | inconclusive [activator, partial curve, poor fit] | –

SMILES | Potency | growth rescue (activation)
Cc1ccc(Sc2ncccc2[N+](=O)[O-])cc1 | inconclusive [activator, single point] | –
COc1ccc(/C=N/Nc2cc(C)nc3ccc(OC)cc23)c(OC)c1 | inconclusive [activator, partial curve] | –
COc1ccc(C)cc1NC(=O)c1cc2c(=O)n3ccccc3nc2n1C | inactive | –
CC(=O)[C@H]1CC[C@H]2[C@@H]3CC=C4C[C@@H](O)CC[C@]4(C)[C@H]3CC[C@]12C | inactive | –
CN1C(=O)[C@H]2[C@@H](c3ccc(C(F)(F)F)cc3)N[C@]3(CCCN(CC4CCCCC4)C3=O)[C@H]2C1=O | inconclusive [activator, single point] | –
O=[N+]([O-])c1ncccc1OCc1ccc(Cl)c(Cl)c1 | inconclusive [activator, full curve, poor fit] | –
CCCCC(=O)NC(c1ccco1)c1cc(Cl)c2cccnc2c1O (stereo not given) | inconclusive [activator, single point] | –
COc1ccc(S(=O)(=O)NC2CC3CCC2C3)cc1Cl (stereo not given) | inconclusive [activator, single point] | –
O=[N+]([O-])c1cc(S(=O)(=O)NCCN2CCOCC2)ccc1Sc1nnnn1-c1ccccc1 | inconclusive [activator, partial curve] | –
CCc1ccc(NC(=O)N2CCN(Cc3nc4ccc(C)cc4o3)CC2)cc1 | inconclusive [activator, single point] | –
O=C(COc1ccccc1Cl)NC(=S)Nc1ccccc1N1CCCC1 | active: 15.8 µM | –
CCCCc1nc(SCC(=O)N2CCCCC2)c2c(=O)n(C)c(=O)n(C)c2n1 | inconclusive [activator, single point] | –
COc1cccc(NC(=O)CN2C(=O)CC(c3ccco3)Sc3ccccc32)c1 (stereo not given) | inconclusive [activator, single point] | –
COc1ccc(CCNC(=O)c2cc(COc3c(F)cccc3F)on2)c(OC)c1 | inconclusive [activator, partial curve] | –
Cc1nc(-c2cccc(NS(=O)(=O)c3ccccc3)c2)cs1 | inconclusive [activator, single point] | –
Cc1ccc2c(c1)c(=O)c1ccccc1n2CCCC(=O)Nc1ccc(Cl)c(Cl)c1 | inactive | –
COc1ccc(N2C(=O)C3CCCN3C2c2cccc(C)c2)cc1Cl (stereo not given) | inconclusive [activator, full curve, poor fit] | –
CC(C)N(C(=O)[C@H]1CC(CC(=O)NCc2cccc(C(F)(F)F)c2)C(=O)N2CCc3c([nH]c4ccccc34)[C@]12C)C(C)C (stereo not given in full) | inconclusive [activator, single point] | –
O=C(NCc1cccs1)c1cccnc1Cl | inactive | –
CN(CC1COc2ccccc2O1)C(=S)Nc1ccccc1 (stereo not given) | active: 12.6 µM | –
COc1ccc(C(=O)NCc2ccc3c(c2)cc(C)n3C)cc1 | inconclusive [activator, partial curve] | –
CCCCN(CCCC)CCNC(=O)CNC(=O)c1cccs1 | inactive | –
COc1ccc(S(=O)(=O)N2CCC(=O)N2)cc1 | inconclusive [activator, partial curve, poor fit] | –
O=C(NCCc1ccccc1)c1cc(=O)c2ccccc2o1 | inactive | –

SMILES | Potency | growth rescue (activation)
COc1ccccc1N1CCN(C(=O)c2ccc3c(c2)N(Cc2cc(C)ccc2C)C(=O)c2ccccc2S3(=O)=O)CC1 | inactive | –
CCN(CC)S(=O)(=O)c1cc(NC(=O)C2Cc3ccccc3C(=O)O2)ccc1C (stereo not given) | inconclusive [activator, single point] | –
Cc1[nH]c(=S)sc1Cc1ccc(F)cc1 | inconclusive [activator, single point] | –
O=C(NCc1cccs1)c1cccc2c(-c3cccnc3)coc12 | active: 17.8 µM | –
OCCCNc1nc(-c2ccc(Br)cc2)nnc1-c1ccc(Cl)cc1 | inconclusive [activator, partial curve, poor fit] | –
COC(=O)c1sccc1NC(=O)COc1ccc(Cl)cc1Cl | inconclusive [activator, partial curve] | –
O=C(Cn1cnc2ccccc2c1=O)c1c[nH]c2ccccc12 | inactive | –
Cc1cc2c(n1-c1ccc(Br)cc1)CC(C)(C)CC2=O | inconclusive [activator, partial curve] | –
COCc1ccc(C(=O)N2CCCC(Nc3ccc(C(C)C)cc3)C2)o1 (stereo not given) | inconclusive [activator, partial curve] | –
Cc1cc(NC(=O)c2ccc3nccnc3c2)ccc1Br | inconclusive [activator, partial curve] | –
O=C(c1cc(Cl)cc(Cl)c1)N1CCC(=O)N([C@H](COCc2ccccc2)Cc2ccccc2)CC1 | inconclusive [activator, partial curve] | –
O=C(CSc1nccn1Cc1ccccc1)Nc1nc2ccccc2s1 | inactive | –
Cc1ccc(C(=O)NCC(c2ccco2)S(=O)(=O)c2ccccc2)cc1C (stereo not given) | – | inactive: 12.2% [at 9.22 µM]
O=C(Nc1cccc(OC(=O)c2ccc(Br)o2)c1)c1ccccc1 | active: 22.4 µM | –
CN1C2C=CC(=O)C1C1C(=O)N(c3ccccc3)C(=O)C12 (stereo not given) | inconclusive [activator, single point] | –
CCN(CC)C(=O)CNc1ccc(C(F)(F)F)cc1[N+](=O)[O-] | inconclusive [activator, partial curve] | –
Cc1onc(-c2ccccc2)c1CNC(=O)C1COc2ccccc2O1 (stereo not given) | inconclusive [activator, single point] | –
CCN(CC)c1ccc(-c2nn3c(-c4cccnc4)nnc3s2)cc1 | inconclusive [activator, single point] | –
S=c1[nH]nc2c3c4c(sc3ncn12)CCCC4 | active: 4.47 µM | –
S=C(NCc1ccc2c(c1)OCO2)NCc1ccc2c(c1)OCO2 | inactive | –
CC(C)(C)OC(=O)N1CCC(c2c(C(=O)N3CCN(c4ccccn4)CC3)cnn2-c2cccc(F)c2)CC1 | inactive | –
FC(F)(F)c1ccccc1NC(=S)N1CCc2ccccc2C1 | inconclusive [activator, partial curve] | –
